{"source": "the supplement of paper PMC9588766", "note": "Where a name gives a salt, the structure may show the parent alone. Whole data set: some 1,900 compounds, median “cell viability of compound + 1 nM pemigatinib relative to pemigatinib-only (DMSO) wells” near 0.95, cut for the lowest 2% near 0.22. The list shows a part of the results.", "data": [{"tested_on": "PDC-DUC18828", "experiment": "cell viability of compound + 1 nM pemigatinib relative to pemigatinib-only (DMSO) wells (fraction); PDC-DUC18828 is a patient-derived cholangiocarcinoma cell line; higher = less growth inhibition", "details": "first compound 1 µM; pemigatinib concentration 1 nM; 72 h", "procedure": "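Selleck Bioactive library screen in the patient-derived FGFR2 fusion-positive ICC cell line PDC-DUC18828 (500 cells/well). Each compound was tested at 1 uM with 1 nM pemigatinib, in triplicate, for 72 h. Viability was read by CellTiter-Glo and normalised to plate DMSO controls. Value is the paper's averaged normalised viability.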", "values": [{"smiles": "Cc1coc2c1C(=O)C(=O)c1c-2ccc2c1CCCC2(C)C", "note": "[Tanshinone IIA] + CCN1C(=O)N(c2c(F)c(OC)cc(OC)c2F)Cc2cnc3[nH]c(CN4CCOCC4)cc3c21 [pemigatinib]", "cell viability": 0.986}, {"smiles": "CCc1c(O)cc(O)c(C(=O)c2ccc(OCCN3CCOCC3)c(OC)c2)c1CC(=O)N(CCOC)CCOC", "note": "+ CCN1C(=O)N(c2c(F)c(OC)cc(OC)c2F)Cc2cnc3[nH]c(CN4CCOCC4)cc3c21 [pemigatinib]", "cell viability": 0.649}, {"smiles": "CNCCCC12CCC(c3ccccc31)c1ccccc12", "note": "[Maprotiline HCl] + CCN1C(=O)N(c2c(F)c(OC)cc(OC)c2F)Cc2cnc3[nH]c(CN4CCOCC4)cc3c21 [pemigatinib]", "cell viability": 0.929}, {"smiles": "CC[C@H]1OC(=O)C[C@@H](O)[C@H](C)[C@@H](O[C@@H]2O[C@H](C)[C@@H](O)[C@H](N(C)C)[C@H]2O)[C@@H](CCN2C[C@H](C)C[C@H](C)C2)C[C@@H](C)C(=O)/C=C/C(C)=C/[C@@H]1CO[C@@H]1O[C@H](C)[C@@H](O)[C@@H](OC)[C@H]1OC", "note": "[Tilmicosin] + CCN1C(=O)N(c2c(F)c(OC)cc(OC)c2F)Cc2cnc3[nH]c(CN4CCOCC4)cc3c21 [pemigatinib]", "cell viability": 0.985}, {"smiles": "OC(c1cc(C(F)(F)F)nc2c(C(F)(F)F)cccc12)C1CCCCN1", "note": "(stereo unspecified) [Mefloquine HCl] + CCN1C(=O)N(c2c(F)c(OC)cc(OC)c2F)Cc2cnc3[nH]c(CN4CCOCC4)cc3c21 [pemigatinib]", "cell viability": 0.986}, {"smiles": "COc1ccc2c(c1)c(CC(=O)N1CCOCC1)c(C)n2C(=O)c1ccc(Cl)cc1", "note": "+ CCN1C(=O)N(c2c(F)c(OC)cc(OC)c2F)Cc2cnc3[nH]c(CN4CCOCC4)cc3c21 [pemigatinib]", "cell viability": 0.94}, {"smiles": "CN(C)Cc1cccc(N=C(c2ccccc2)c2c(O)[nH]c3cc(C(=O)N(C)C)ccc23)c1", "note": "+ CCN1C(=O)N(c2c(F)c(OC)cc(OC)c2F)Cc2cnc3[nH]c(CN4CCOCC4)cc3c21 [pemigatinib]", "cell viability": 0.994}, {"smiles": "CS(=O)(=O)c1ccc(-c2cnc(N)c(C(=O)Nc3ccccc3)n2)cc1", "note": "+ CCN1C(=O)N(c2c(F)c(OC)cc(OC)c2F)Cc2cnc3[nH]c(CN4CCOCC4)cc3c21 [pemigatinib]", "cell viability": 0.97}, {"smiles": "COc1c(C)c2c(c(O)c1C/C=C(\\C)CCC(=O)O)C(=O)OC2", "note": "[Mycophenolic acid] + CCN1C(=O)N(c2c(F)c(OC)cc(OC)c2F)Cc2cnc3[nH]c(CN4CCOCC4)cc3c21 [pemigatinib]", "cell viability": 0.504}, {"smiles": "O=C(Oc1ccccc1C(=O)O)c1ccccc1O", "note": "[Sasapyrine] + CCN1C(=O)N(c2c(F)c(OC)cc(OC)c2F)Cc2cnc3[nH]c(CN4CCOCC4)cc3c21 [pemigatinib]", "cell viability": 0.968}, {"smiles": "O=C(NCCN1CCOCC1)c1ccc(Cl)cc1", "note": "+ CCN1C(=O)N(c2c(F)c(OC)cc(OC)c2F)Cc2cnc3[nH]c(CN4CCOCC4)cc3c21 [pemigatinib]", "cell viability": 0.858}, {"smiles": "Cc1cc(Cl)ccc1OCCCC(=O)NO", "note": "[Droxinostat] + CCN1C(=O)N(c2c(F)c(OC)cc(OC)c2F)Cc2cnc3[nH]c(CN4CCOCC4)cc3c21 [pemigatinib]", "cell viability": 0.941}, {"smiles": "Cc1ccc(-n2sc(=O)n(Cc3ccc(F)cc3)c2=O)cc1", "note": "+ CCN1C(=O)N(c2c(F)c(OC)cc(OC)c2F)Cc2cnc3[nH]c(CN4CCOCC4)cc3c21 [pemigatinib]", "cell viability": 0.823}, {"smiles": "C/C(=C\\C(=O)Nc1ccccc1C(=O)O)c1ccc2ccccc2c1", "note": "+ CCN1C(=O)N(c2c(F)c(OC)cc(OC)c2F)Cc2cnc3[nH]c(CN4CCOCC4)cc3c21 [pemigatinib]", "cell viability": 1.03}, {"smiles": "O=C(c1ccc(/C=C/c2n[nH]c3ccccc23)cc1)N1CCNCC1", "note": "+ CCN1C(=O)N(c2c(F)c(OC)cc(OC)c2F)Cc2cnc3[nH]c(CN4CCOCC4)cc3c21 [pemigatinib]", "cell viability": 0.999}, {"smiles": "C[C@H](Cc1cc2c(c(C(N)=O)c1)N(CCCO)CC2)NCCOc1ccccc1OCC(F)(F)F", "note": "[Silodosin] + CCN1C(=O)N(c2c(F)c(OC)cc(OC)c2F)Cc2cnc3[nH]c(CN4CCOCC4)cc3c21 [pemigatinib]", "cell viability": 1.06}, {"smiles": "CN(C)CCOc1ccc(-c2nc(-c3ccncc3)c(-c3ccc4c(c3)CC/C4=N\\O)[nH]2)cc1", "note": "+ CCN1C(=O)N(c2c(F)c(OC)cc(OC)c2F)Cc2cnc3[nH]c(CN4CCOCC4)cc3c21 [pemigatinib]", "cell viability": 1.16}, {"smiles": "Nc1c(CC(=O)O)cccc1C(=O)c1ccc(Br)cc1", "note": "[Bromfenac Sodium] + CCN1C(=O)N(c2c(F)c(OC)cc(OC)c2F)Cc2cnc3[nH]c(CN4CCOCC4)cc3c21 [pemigatinib]", "cell viability": 0.905}, {"smiles": "CC1(C)CC[C@]2(C(=O)O)CC[C@]3(C)C(=CC[C@@H]4[C@@]5(C)CC[C@H](O)C(C)(C)[C@@H]5CC[C@]43C)[C@@H]2C1", "note": "[Oleanolic Acid] + CCN1C(=O)N(c2c(F)c(OC)cc(OC)c2F)Cc2cnc3[nH]c(CN4CCOCC4)cc3c21 [pemigatinib]", "cell viability": 0.932}, {"smiles": "O=C(O)CCCCC(CCSCc1ccccc1)SCc1ccccc1", "note": "(stereo unspecified) + CCN1C(=O)N(c2c(F)c(OC)cc(OC)c2F)Cc2cnc3[nH]c(CN4CCOCC4)cc3c21 [pemigatinib]", "cell viability": 1}, {"smiles": "O=c1c(-c2ccc(O)cc2)coc2cc(O)ccc12", "note": "[Daidzein] + CCN1C(=O)N(c2c(F)c(OC)cc(OC)c2F)Cc2cnc3[nH]c(CN4CCOCC4)cc3c21 [pemigatinib]", "cell viability": 0.988}, {"smiles": "C[C@H]1O[C@@H](n2cc(F)c(=O)[nH]c2=O)[C@H](O)[C@@H]1O", "note": "[Doxifluridine] + CCN1C(=O)N(c2c(F)c(OC)cc(OC)c2F)Cc2cnc3[nH]c(CN4CCOCC4)cc3c21 [pemigatinib]", "cell viability": 1.02}, {"smiles": "CC(C)(C)c1nc(-c2cccc(NS(=O)(=O)c3c(F)cccc3F)c2F)c(-c2ccnc(N)n2)s1", "note": "+ CCN1C(=O)N(c2c(F)c(OC)cc(OC)c2F)Cc2cnc3[nH]c(CN4CCOCC4)cc3c21 [pemigatinib]", "cell viability": 0.884}, {"smiles": "Cc1cc(/C=C2/SC(=S)NC2=O)c(C)n1-c1cccnc1", "note": "[Optovin] + CCN1C(=O)N(c2c(F)c(OC)cc(OC)c2F)Cc2cnc3[nH]c(CN4CCOCC4)cc3c21 [pemigatinib]", "cell viability": 0.931}, {"smiles": "Cc1cc(C)c(Nc2ccnc(Nc3ccc(C#N)cc3)n2)c(C)c1", "note": "[Dapivirine (TMC120)] + CCN1C(=O)N(c2c(F)c(OC)cc(OC)c2F)Cc2cnc3[nH]c(CN4CCOCC4)cc3c21 [pemigatinib]", "cell viability": 0.85}, {"smiles": "Nc1ncnc2c1ncn2[C@@H]1O[C@H](CO)[C@@H](O)[C@H]1O", "note": "[Adenosine] + CCN1C(=O)N(c2c(F)c(OC)cc(OC)c2F)Cc2cnc3[nH]c(CN4CCOCC4)cc3c21 [pemigatinib]", "cell viability": 1.02}, {"smiles": "O=C(c1ccc(Nc2nccc(-c3cc4ccccc4s3)n2)cc1)N1CCC(N2CCCC2)CC1", "note": "[IKK-16 (IKK Inhibitor VII)] + CCN1C(=O)N(c2c(F)c(OC)cc(OC)c2F)Cc2cnc3[nH]c(CN4CCOCC4)cc3c21 [pemigatinib]", "cell viability": 0.83}, {"smiles": "Clc1ccc(CSC(Cn2ccnc2)c2ccc(Cl)cc2Cl)cc1", "note": "(stereo unspecified) [Sulconazole Nitrate] + CCN1C(=O)N(c2c(F)c(OC)cc(OC)c2F)Cc2cnc3[nH]c(CN4CCOCC4)cc3c21 [pemigatinib]", "cell viability": 0.906}, {"smiles": "CC(=O)O[C@@]12CO[C@@H]1C[C@H](O)[C@@]1(C)C(=O)[C@H](O)C3=C(C)[C@@H](OC(=O)[C@H](O)[C@@H](NC(=O)OC(C)(C)C)c4ccccc4)C[C@@](O)([C@@H](OC(=O)c4ccccc4)[C@H]21)C3(C)C", "note": "[Docetaxel] + CCN1C(=O)N(c2c(F)c(OC)cc(OC)c2F)Cc2cnc3[nH]c(CN4CCOCC4)cc3c21 [pemigatinib]", "cell viability": 0.245}, {"smiles": "O=C(/C=C/c1ccccc1)NC(NC(=S)Nc1cccc2cccnc12)C(Cl)(Cl)Cl", "note": "(stereo unspecified) [Salubrinal] + CCN1C(=O)N(c2c(F)c(OC)cc(OC)c2F)Cc2cnc3[nH]c(CN4CCOCC4)cc3c21 [pemigatinib]", "cell viability": 0.88}, {"smiles": "CO[C@H]1C[C@@H]2CC[C@@H](C)[C@@](O)(O2)C(=O)C(=O)N2CCCC[C@H]2C(=O)O[C@H]([C@H](C)C[C@@H]2CC[C@@H](OCCO)[C@H](OC)C2)CC(=O)[C@H](C)/C=C(\\C)[C@@H](O)[C@@H](OC)C(=O)[C@H](C)C[C@H](C)/C=C/C=C/C=C/1C", "note": "[Everolimus (RAD001)] + CCN1C(=O)N(c2c(F)c(OC)cc(OC)c2F)Cc2cnc3[nH]c(CN4CCOCC4)cc3c21 [pemigatinib]", "cell viability": 0.56}, {"smiles": "Fc1ccc(Cl)cc1-c1nc(Nc2ccncc2)c2nccnc2n1", "note": "+ CCN1C(=O)N(c2c(F)c(OC)cc(OC)c2F)Cc2cnc3[nH]c(CN4CCOCC4)cc3c21 [pemigatinib]", "cell viability": 0.97}, {"smiles": "CC1CNc2c(cccc2S(=O)(=O)N[C@@H](CCCNC(=N)N)C(=O)N2CC[C@@H](C)C[C@@H]2C(=O)O)C1", "note": "(stereo partly specified) [Argatroban] + CCN1C(=O)N(c2c(F)c(OC)cc(OC)c2F)Cc2cnc3[nH]c(CN4CCOCC4)cc3c21 [pemigatinib]", "cell viability": 1.12}, {"smiles": "CN(C)CCN(Cc1ccccc1)c1ccccn1", "note": "[Tripelennamine HCl] + CCN1C(=O)N(c2c(F)c(OC)cc(OC)c2F)Cc2cnc3[nH]c(CN4CCOCC4)cc3c21 [pemigatinib]", "cell viability": 0.834}, {"smiles": "COc1ccccc1N1CCN(CCN(C(=O)C2CCCCC2)c2ccccn2)CC1", "note": "+ CCN1C(=O)N(c2c(F)c(OC)cc(OC)c2F)Cc2cnc3[nH]c(CN4CCOCC4)cc3c21 [pemigatinib]", "cell viability": 1.03}, {"smiles": "Oc1ccc(OC2CCCCO2)cc1", "note": "(stereo unspecified) [Deoxyarbutin] + CCN1C(=O)N(c2c(F)c(OC)cc(OC)c2F)Cc2cnc3[nH]c(CN4CCOCC4)cc3c21 [pemigatinib]", "cell viability": 1.06}]}]}
